Where a name gives a salt, the structure may show the parent alone. ± gives the standard deviation of the averaged measurements. Whole data set: some 2,800 compounds, median “cell viability relative to vehicle” near 1.1, cut for the lowest 2% near 0.19. This is one part of the list.

This experiment has as its system NCI-H2228 parental. The experiment can be described thus: cell viability relative to vehicle (fraction of vehicle); NCI-H2228 is an ALK-positive lung cancer line and DTP means drug-tolerant persister; higher = less growth inhibition. The conditions noted are these: 100 nM; treatment time 6 days. The essentials:
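The 3114-agent TargetMol anti-cancer compound library was tested at 100 nM for 6 days on parental NCI-H2228 cells and on persister cells derived with 1000 nM of a targeted drug for 13 days. ATP readout by the CellTiter-Glo 3D Cell Viability Assay gave cell viability relative to DMSO vehicle-treated cells.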
`CN1CCN(c2ccc(OC(F)(F)F)c(Nc3ncc4c(n3)-c3c(c(C(N)=O)nn3CCO)CC4)c2)CC1`: the cell viability was found to be 0.168.

`Nc1nc(O)c2ncn(CCC(CO)CO)c2n1` [Penciclovir]: the cell viability was determined as 1.04.

For the compound `Fc1ccc([C@@H]2CCNC[C@H]2COc2ccc3c(c2)OCO3)cc1` [Paroxetine hydrochloride], the cell viability amounted to 1.13.

With `Nc1ccc(S(=O)(=O)NCCc2ccccc2)cc1`, the cell viability was 0.952.

As for `Cn1c(O)c(C2=c3ccccc3=NC2=O)c2ccccc21` [Methylisoindigotin], the cell viability turned out to be 0.86.

As for `C[C@H]1COc2c(N3CCN(C)CC3)c(F)cc3c(=O)c(C(=O)O)cn1c23` [Levofloxacin Hemihydrate], the cell viability worked out at 1.26.

Take `CC(C)=CCC[C@](C)(O[C@@H]1O[C@H](CO[C@@H]2O[C@H](CO)[C@@H](O)[C@H](O)[C@H]2O)[C@@H](O)[C@H](O)[C@H]1O)[C@H]1CC[C@]2(C)[C@@H]1[C@H](O)C[C@@H]1[C@@]3(C)CC[C@H](O[C@@H]4O[C@H](CO)[C@@H](O)[C@H](O)[C@H]4O[C@@H]4O[C@H](CO)[C@@H](O)[C@H](O)[C@H]4O)C(C)(C)[C@@H]3CC[C@]12C` [Ginsenoside Rb1]: the cell viability was 1.06.

For `CCCC(=O)OCOC(=O)C1=C(C)NC(C)=C(C(=O)OC)C1c1cccc(Cl)c1Cl` (stereo not given) [Clevidipine butyrate], the cell viability came to 1.13.

With `CN1CCC(OC(c2ccccc2)c2ccccc2)CC1` [Diphenylpyraline hydrochloride], the cell viability worked out at 1.15.

With `COc1cc(/C=C/C(=O)NCCn2c(C(F)(F)F)cc3ccccc32)cc(OC)c1OC`, the cell viability amounted to 1.05.

As for `CC(C)=CCOc1c2ccoc2cc2oc(=O)ccc12` [Isoimperatorin], the cell viability turned out to be 1.06.

On to `C/C=C1\[C@H]2C=C(C)C[C@]1(N)c1ccc(=O)[nH]c1C2` [(-)-Huperzine A], for which the cell viability came out at 1.1.

Regarding `CN1CCN(C2CCN(C(=O)Nc3cc(Oc4ccc(NC(=O)C5(C(=O)Nc6ccc(F)cc6)CC5)c(F)c4)ccn3)CC2)CC1` [Golvatinib], the cell viability was 1.13.

As for `C[N+](C)(C)CCO.[Cl-]` [Choline chloride], the cell viability worked out at 1.01.

On to `Cn1cc(-c2ccc3nnc(Sc4ccc5ncccc5c4)n3n2)cn1`, for which the cell viability is 1.28.

Take `Clc1ccc(Nc2nnc(Cc3ccncc3)c3ccccc23)cc1` [Vatalanib 2HCl]: the cell viability stood at 1.06.

On to `O=C1NC(=O)/C(=C/c2cccc(C(F)(F)F)c2)S1`, for which the cell viability was 1.03 ± 0.056.

For the compound `Cc1cc(O)c2c(c1)C(=O)c1cc(O)cc(O)c1C2=O` [Emodin], the cell viability stood at 1.01.

As for `COC(=O)c1ccc2c(C(=Nc3ccc(N(C)C(=O)CN4CCN(C)CC4)cc3)c3ccccc3)c(O)[nH]c2c1` [Nintedanib Ethanesulfonate Salt], the cell viability stood at 1.03.

With `O=C(O)CSCC(=O)NC1CCSC1=O` (stereo not given) [Erdosteine], the cell viability is 1.03.

Consider `COc1cc(/C=C/C(=O)CC(=O)/C=C/c2ccc(O)c(OC)c2)ccc1O` [Curcumin], for which the cell viability is 1.03.

For `O=C1c2cccc3c2[C@H](CCC3)CN1[C@@H]1CN2CCC1CC2` [Palonosetron hydrochloride], the cell viability came out at 1.03.

For the compound `Cn1cnc([N+](=O)[O-])c1Sc1ncnc2[nH]cnc12` [Azathioprine], the cell viability was determined as 0.882.

Regarding `CC(C)C(=O)Nc1ccc([N+](=O)[O-])c(C(F)(F)F)c1` [Flutamide], the cell viability was found to be 1.14.

In the case of `CC1(C)CCC2=C(O1)c1ccccc1C(=O)C2=O` [Beta-Lapachone], the cell viability was determined as 1.03.

With `CC(=O)OCC[N+](C)(C)C` [Acetylcholine chloride], the cell viability was found to be 1.06.

In the case of `S=C(NCc1ccc2c(c1)OCO2)N1CCN(c2ncnc3c2oc2ccccc23)CC1` [Amuvatinib], the cell viability is 0.893.

Take `C[C@H](CCC(=O)O)[C@H]1CC[C@H]2[C@@H]3CC[C@@H]4C[C@H](O)CC[C@]4(C)[C@H]3CC[C@]12C` [Lithocholic acid]: the cell viability was 0.83.

In the case of `CC(C)=CCc1cc2c(cc1O)oc(=O)c1c3ccc(O)cc3oc21` [Psoralidin], the cell viability came to 1.08.

Turning to `Cc1cc(C)nc(NC(=S)N2CCN(Cc3ccc(C(F)(F)F)cc3)CC2)c1`, the cell viability was found to be 1.15.

Regarding `CCOc1cc(C(C)(C)C)ccc1C1=N[C@@](C)(c2ccc(Cl)cc2)[C@@](C)(c2ccc(Cl)cc2)N1C(=O)N1CCN(CCCS(C)(=O)=O)CC1`, the cell viability came to 1.1.

Regarding `CCOC(=O)Nc1ccc(NCc2ccc(F)cc2)nc1N` [Flupirtine maleate], the cell viability worked out at 1.02.

As to `CC1COc2c(N3CCN(C)CC3)c(F)cc3c(=O)c(C(=O)O)cn1c23` (stereo not given) [Ofloxacin], the cell viability was 1.06.

Regarding `O=C(/C=C/N1C[C@H]2C[C@@H]1CN2c1ccccn1)c1ccccc1O`, the cell viability was determined as 1.2.

For the compound `OCc1ccccn1` [2-(Hydroxymethyl)pyridine], the cell viability was found to be 1.16.

With `CN(C(=O)c1c(O)c2ccccc2n(C)c1=O)c1ccccc1` [Roquinimex], the cell viability came out at 0.926.

As for `CC(C)Cc1ccc(C(C)C(=O)O)cc1` (stereo not given) [Ibuprofen], the cell viability amounted to 1.19.

As for `Nc1nc2[nH]cc(CCc3ccc(C(=O)N[C@@H](CCC(=O)O)C(=O)O)cc3)c2c(=O)[nH]1` [Pemetrexed Disodium Hydrate], the cell viability is 0.187.

With `CCN1CCN(Cc2ccc(Nc3ncc(F)c(-c4cc(F)c5nc(C)n(C(C)C)c5c4)n3)nc2)CC1`, the cell viability worked out at 0.912.

Consider `CCN1CCN(Cc2ccc(Nc3ncc(F)c(-c4cc(F)c5nc(C)n(C(C)C)c5c4)n3)nc2)CC1` [Abemaciclib], for which the cell viability is 0.839.

As for `COCCc1ccc(OCC(O)CNC(C)C)cc1` (stereo not given) [Metoprolol Succinate], the cell viability stood at 0.991.

With `COCCc1ccc(OCC(O)CNC(C)C)cc1` (stereo not given) [Metoprolol tartrate], the cell viability was found to be 1.18.

As to `O=C(OCCOCCO)c1ccccc1Nc1cccc(C(F)(F)F)c1` [Etofenamate], the cell viability stood at 1.1.

As for `O=C(O)c1cc(I)ccc1NC(=O)[C@H](Cc1ccccc1)NCc1ccccc1`, the cell viability was 1.04.

For the compound `O=c1c(O)c(-c2ccc(O)c(O)c2)oc2cc(O)cc(O)c12` [Quercetin], the cell viability came to 1.27.

On to `CN(C)CCCOc1ccc(-c2ccc3ncc4c(c3c2)n(C2CCOCC2)c(=O)n4C)cn1`, for which the cell viability was 0.704.

As for `COc1ccc(C2=N[C@H](c3ccc(Cl)cc3)[C@H](c3ccc(Cl)cc3)N2C(=O)N2CCNC(=O)C2)c(OC(C)C)c1` [Nutlin-3b], the cell viability worked out at 1.15.

As to `O=C(Nc1ccc([N+](=O)[O-])cc1O)Nc1ccccc1Br`, the cell viability stood at 1.05.

On to `O=C(c1cncc(Br)c1)N1CCC(N2CCCC2)CC1`, for which the cell viability stood at 1.09.

With `O=C(O)C1(C(=O)O)CCC1.[NH2-].[NH2-].[Pt+2]` [Carboplatin], the cell viability turned out to be 1.03.

In the case of `COc1ccc(CC(=O)NC(/N=C(\NC#N)Nc2cccc3ncccc23)C(C)(C)C)cc1OC` (stereo not given), the cell viability was determined as 1.05.

For the compound `Cc1c[nH]c(/C=C2\C(=O)Nc3ccccc32)c1CCC(=O)O`, the cell viability was found to be 1.07.

As for `NCc1ccc(S(N)(=O)=O)cc1` [Mafenide hydrochloride], the cell viability turned out to be 1.14.

Regarding `O=c1[nH]nc(Sc2ncc([N+](=O)[O-])s2)n1-c1ccc2c(c1)OCCO2`, the cell viability was 1.04.

In the case of `Cn1cc(-c2ccc(S(=O)(=O)n3ccc(/C=C/C(=O)Nc4ccccc4N)c3)cc2)cn1` [4SC-202 tosylate], the cell viability was 0.923.

Turning to `CCc1oc2ccccc2c1C(=O)c1cc(Br)c(O)c(Br)c1` [Benzbromarone], the cell viability is 1.04.

Regarding `C=C(c1ccc(C(=O)O)cc1)c1cc2c(cc1C)C(C)(C)CCC2(C)C` [Bexarotene], the cell viability came out at 1.05.

For the compound `O=c1cc(-c2ccc(O)cc2)oc2cc(O)c(O)c(O)c12` [Scutellarein], the cell viability is 1.12.

As for `CN(C)CCCCC(=O)Nc1ccc(NC(=S)NC(=O)c2ccc(C(C)(C)C)cc2)cc1` [Tenovin-6], the cell viability was 1.06.

Consider `COc1cc2ncnc(Nc3ccccc3)c2cc1OC`, for which the cell viability was found to be 1.

On to `CC(C)(C)NCC(O)c1cc(O)cc(O)c1` (stereo not given) [Terbutaline Sulfate], for which the cell viability is 0.967.

In the case of `CC[N+](CC)(CC)CCOc1cccc(OCC[N+](CC)(CC)CC)c1OCC[N+](CC)(CC)CC` [Gallamine triethiodide], the cell viability turned out to be 1.04.

For `CN1CCC[C@@H]1CCO[C@](C)(c1ccccc1)c1ccc(Cl)cc1` [Clemastine fumarate], the cell viability was determined as 1.06.

With `CCOc1ccc(NC(C)=O)cc1` [Phenacetin], the cell viability was 1.

In the case of `O=C(c1ccc(OCCCc2c[nH]cn2)cc1)C1CC1` [Ciproxifan], the cell viability was determined as 0.93.

In the case of `CC(C(=O)O)c1ccc(C(=O)c2cccs2)cc1` (stereo not given) [Suprofen], the cell viability was 0.977.

Regarding `CN1CCN(c2nc(C3=C(c4c[nH]c5ccccc45)C(=O)NC3=O)c3ccccc3n2)CC1` [Sotrastaurin], the cell viability was 1.17.

For `COc1cc2ncnc(Nc3ccc(F)c(Cl)c3)c2cc1OCCCN1CCOCC1` [Gefitinib], the cell viability turned out to be 0.969.

Consider `COC(=O)[C@]12CCC(C)(C)C[C@H]1[C@H]1C(=O)C=C3[C@@]4(C)C=C(C#N)C(=O)C(C)(C)[C@@H]4CC[C@@]3(C)[C@]1(C)CC2` [Bardoxolone Methyl], for which the cell viability is 1.15.

In the case of `Oc1cc(O)c(Cl)cn1` [Gimeracil], the cell viability turned out to be 1.1.

On to `COc1ccc2cc(OCC3(C(=O)O)CN(C(=O)c4ccc(F)cc4)C3)ccc2c1`, for which the cell viability came to 1.17.

Regarding `COc1ccc(N2C(=O)/C(=C\c3ccc([N+](=O)[O-])s3)SC2=S)cc1`, the cell viability is 0.574.

On to `CC1(C)CNc2cc(NC(=O)c3cccnc3NCc3ccncc3)ccc21` [Motesanib], for which the cell viability came out at 1.04.

Regarding `COC(=O)C1=C(C)NC(C)=C(C(=O)OCCN(C)Cc2ccccc2)C1c1cccc([N+](=O)[O-])c1` (stereo not given) [Nicardipine hydrochloride], the cell viability amounted to 1.01.

In the case of `Cc1cc(-c2ccc(CC(=O)Nc3ccc(-c4cccnc4)cc3)cc2)ccn1`, the cell viability is 0.962.

For the compound `COc1ccc(C2CC(c3ccccc3)=NN2c2ccc(S(N)(=O)=O)cc2)cc1` (stereo not given), the cell viability stood at 0.899.

For `CCCC(=O)[O-].[Na+]` [Sodium butanoate], the cell viability worked out at 1.26.

With `COCCOc1ccc2c(c1)ncn2-c1ccc2cccc(N3CCC(N)CC3)c2n1`, the cell viability was 1.15.

On to `Cc1cc(Nc2cc(N3CCN(C)CC3)nc(/C=C/c3ccccc3)n2)n[nH]1`, for which the cell viability came out at 0.803.

In the case of `CNCc1cc(-c2ccccc2F)n(S(=O)(=O)c2cccnc2)c1` [Vonoprazan fumarate], the cell viability was determined as 1.18.
